Test results from paper PMC4336329 (PLoS ONE, 2015).
About 14,000 (4.5%) of roughly 310,000 compounds showed an effect of 50% or more. Effects have a minus sign here. Some of the results follow.

The molecules below were run against human ether-à-go-go-related gene (hERG) potassium channel (human, UniProt Q12809) (assay: primary screen, population patch clamp on CHO cells stably expressing hERG).
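Also: peak tail current of the secondary pulse compared with the same well before compound.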

Chain of human ether-à-go-go-related gene (hERG) potassium channel (Q12809 whole entry, looked up): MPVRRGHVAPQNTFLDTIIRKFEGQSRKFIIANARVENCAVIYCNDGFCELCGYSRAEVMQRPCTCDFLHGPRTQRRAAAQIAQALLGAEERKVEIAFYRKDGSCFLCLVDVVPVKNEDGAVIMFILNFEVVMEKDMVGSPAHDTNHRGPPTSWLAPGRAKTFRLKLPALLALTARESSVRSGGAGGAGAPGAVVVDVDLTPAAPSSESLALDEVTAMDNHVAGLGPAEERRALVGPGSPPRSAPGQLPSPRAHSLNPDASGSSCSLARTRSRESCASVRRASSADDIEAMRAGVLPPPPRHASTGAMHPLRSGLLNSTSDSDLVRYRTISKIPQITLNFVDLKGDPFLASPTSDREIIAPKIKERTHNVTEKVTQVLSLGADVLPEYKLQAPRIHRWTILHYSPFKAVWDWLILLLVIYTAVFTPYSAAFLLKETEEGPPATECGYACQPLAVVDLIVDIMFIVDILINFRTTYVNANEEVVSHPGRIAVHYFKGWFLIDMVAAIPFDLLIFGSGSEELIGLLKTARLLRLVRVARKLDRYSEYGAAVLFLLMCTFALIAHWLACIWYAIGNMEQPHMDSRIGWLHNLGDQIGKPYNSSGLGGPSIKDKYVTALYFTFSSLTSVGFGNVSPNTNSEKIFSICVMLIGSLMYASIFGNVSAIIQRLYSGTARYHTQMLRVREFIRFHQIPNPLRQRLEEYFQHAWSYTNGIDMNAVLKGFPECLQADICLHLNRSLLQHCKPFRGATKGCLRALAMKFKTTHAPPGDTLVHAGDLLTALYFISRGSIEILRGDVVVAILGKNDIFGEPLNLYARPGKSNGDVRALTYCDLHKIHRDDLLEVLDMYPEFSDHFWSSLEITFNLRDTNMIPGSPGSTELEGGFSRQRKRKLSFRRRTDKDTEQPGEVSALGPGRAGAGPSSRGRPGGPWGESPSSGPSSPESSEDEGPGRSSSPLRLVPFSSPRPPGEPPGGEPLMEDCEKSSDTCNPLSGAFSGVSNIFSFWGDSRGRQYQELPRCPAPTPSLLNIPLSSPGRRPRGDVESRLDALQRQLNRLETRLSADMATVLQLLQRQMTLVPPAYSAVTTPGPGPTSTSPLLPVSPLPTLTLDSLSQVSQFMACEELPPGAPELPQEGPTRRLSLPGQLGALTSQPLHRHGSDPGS

SMILES | hERG current change (%, negative = inhibition) at 10uM [%]
Cc1csc(NC(=O)CNS(=O)(=O)c2cccs2)n1 | 18
COC(=O)C1=C(C)N(CCCC(=O)O)C(=O)NC1c1ccc(OC)cc1 (centres unmarked) | 11.2
CCOCCCn1c(=S)[nH]c2ncccc2c1=O | 12.1
Cc1cc(Nc2ccc(N3CCC(C)CC3)cc2)n2ncnc2n1 | 2.04
Cc1ccc(Nc2ccc([N+](=O)[O-])nc2[N+](=O)[O-])cc1 | -0.801
Cc1nn(-c2ccccc2)c(C)c1P(=O)(c1ccccc1)N(C)C (centres unmarked) | 14.8
CCOc1ccc(CCNC(=O)C2CC(=O)N(c3ccc4c(c3)OCCO4)C2)cc1OCC (centres unmarked) | 19.5
CCOc1ccc(Nc2nc(Cc3nnc(SCC(=O)NCC4CCCO4)n3C)cs2)cc1 (centres unmarked) | -3.74
COc1ccc2[nH]c(C(=O)N3CCC(Cc4ccccc4)CC3)cc2c1 | 19.2
COc1ccc(CN2C(=O)c3cccnc3C2=O)cc1S(=O)(=O)N1CCCCC1 | -2.62
COc1ccc(-c2nnc(SCC(=O)Nc3cc(F)ccc3C)o2)cc1 | -4.65
Cc1ccc(CN2CCC(n3nccc3NC(=O)c3ccccc3C)CC2)o1 | -25.9
Cc1ccc(S(=O)(=O)N(Cc2ccccc2)c2ccccn2)cc1[N+](=O)[O-] | -12.1
O=C(O)COc1c(-c2ccc(Cl)cc2)oc2ccccc2c1=O | 11.3
Cc1ccc(NC(=O)CN(C)C(=O)CSc2nncn2C)cc1 | 1.44
Cc1cc(C)cc(N(CC(=O)NC2CCCC2)C(=O)C2(C)CC(=O)N=C3C=CC=CN32)c1 (centres unmarked) | 22.8
Nc1nnnn1/N=C/c1ccccn1 | -11.9
COc1cccc(/C=C2\C(=O)C(=O)c3ccccc32)c1 | -0.348
Cc1nc2c(C(=O)N3CCOCC3)cnn2c(C)c1Cc1ccc(Cl)cc1 | -33

SMILES | hERG current change (%, negative = inhibition) at 10uM [%]
CC(C)(C)NS(=O)(=O)c1ccc(NC(=O)C2CCCCC2)cc1 | 11.2
Cc1ccc(/C=N/NC(=O)CSc2ccccn2)o1 | 12.2
Cc1ccc(C2=NOC(C)(c3sc(-c4ccc(Cl)cc4)nc3C)C2)cc1 (centres unmarked) | 6.62
COc1cc(CNCc2ccc(Br)cc2)cc(OC)c1.O=C(O)C(=O)O | -32.3
CC(=O)N1CCc2c(sc(NC(=O)Cc3ccccc3)c2C(N)=O)C1 | 13.5
Cc1ccc(C)c(NC(=O)CSc2nnc(-c3n[nH]c4ccccc34)o2)c1 | -17.5
COc1ccc(C)cc1S(=O)(=O)Nc1cc2c3c(c1)CCN3C(=O)CC2 | -16.8
C=CCCC(=O)N1CCC(n2nccc2NC(=O)c2ccc(OC)cc2)CC1 | -9.74
CC1(C)CC(=O)C(C=Nc2ccc(N)cc2)=C(O)C1 | 7.79
Cc1[nH]n(-c2ncc(-c3ccccc3)s2)c(=O)c1C(c1ccc(Br)cc1)C(C#N)C#N (centres unmarked) | 18.1
COc1ccc(OC)c(NC(=O)CCc2c[nH]c3ccccc23)c1 | 5.27
Cc1cc(C)n(CC(=O)c2ccc(Br)cc2)c(=O)c1C#N | -18.9
Cc1cccc(N/C(N)=N/c2nc(C)c(Cc3ccccc3)c(=O)[nH]2)c1 | 41.8
CC1(c2ccccc2)NC(=O)N(CC(=O)Nc2cccc(/C=C/c3ccccn3)c2)C1=O (centres unmarked) | -8.36
CCCCCCCCOC(=O)C1=C(C)Nc2nnnn2C1c1cccs1 (centres unmarked) | -0.187
COc1cc(F)ccc1S(=O)(=O)n1c(C)nc2ccccc21 | -13.9
NC(=O)c1ccccc1N/C=C/C(=O)c1cccs1 | -5.51
COc1cc(C)c(CN2CCN(c3ncccn3)CC2)cc1C | -13.3
CCOc1cc(C2C(C#N)=C(N)Oc3c2c(=O)oc2ccccc32)ccc1OC(=O)c1cccs1 (centres unmarked) | 5.19

SMILES | hERG current change (%, negative = inhibition) at 10uM [%]
Fc1ccc(NC(=S)N2CCN(c3ncccn3)CC2)cc1 | 19.4
COC(=O)Cc1cnc(NC(=O)C2C3CCC(C3)C2C(=O)O)s1 (centres unmarked) | -3.03
Cc1ccc(C)c(N2CCN(CCCNC(=O)Cn3cc4c(n3)CCCCC4)CC2)c1 | -69.3
COc1cc(C2C(C#N)=C(N)Oc3c2oc(CO)cc3=O)cc(OC)c1OC (centres unmarked) | 12.9
COCCn1c(C)cc(C(=O)COC(=O)c2cccc(O)c2)c1C | -12.1
Cc1cccc(N2CCN(C(=O)N3CCCCC3)CC2)c1C | -7.94
CCOC(=O)CSc1nnc(NC(=O)CN2CCN(C=O)CC2)s1 | 8.08
Cc1ccccc1NP(=O)(c1ccccc1)c1nc2ccccc2s1 (centres unmarked) | 8.67
COc1ccc(NS(=O)(=O)c2ccc(N3CCCC3)c(NC(=S)Nc3cccc(S(=O)(=O)N(C)C)c3)c2)cc1 | 18.1
Cc1ccc(C)c(SCC(=O)OCC(=O)Nc2ncc(C(F)(F)F)cc2Cl)c1 | 17.6
CN1CCN(c2ccc(NC(=S)NC(=O)c3cccc4ccccc34)cc2)CC1 | -51
COc1ccc(-c2nc3ccccc3c(=O)n2CCc2ccc(O)cc2)cc1 | -25.4
Cc1ccc(Cn2cnc3c(cnn3-c3ccc(F)cc3)c2=O)cc1 | 9.31
COC(=O)CSc1ccc(C#N)c(SCC(=O)OC)c1 | 12.5
CCC(Sc1ncnc2sc(C)c(C)c12)C(=O)OC (centres unmarked) | -2.58
CCCCN1/C(=C/c2cccc[n+]2C)Sc2cc(NC(C)=O)ccc21.[I-] | 16.9
CC(C)Cc1ccc(CN2CCCC(NC(=O)c3ccnn3C)C2)cc1 (centres unmarked) | -68.7
COCCN(C(=O)COC(=O)Cc1c[nH]c2ccccc12)c1c(N)n(Cc2ccccc2)c(=O)[nH]c1=O | 16.6
